Measured values published in PubChem BioAssay AID488969 (Vanderbilt High Throughput Screening Facility, 2010).
In all, about 110,000 compounds were measured (“z-score”: median about -0.1, highest 2% from about 2 on). The list shows a part of the results.

target: Metabotropic glutamate receptor 8 (Rattus norvegicus) (UniProt P70579); test: rat mGluR8 modulators via GIRK flux, primary screen, cell-based, thallium flux, HTS (AID 488969); details: HEK293 rat mGluR8, GIRK (G protein-gated inwardly rectifying potassium channel) thallium flux, FluoZin2; at 10 µM; stronger effect = higher value; submaximal glutamate (EC20) added with thallium
UniProt P70579, sequence (P70579 whole entry, looked up): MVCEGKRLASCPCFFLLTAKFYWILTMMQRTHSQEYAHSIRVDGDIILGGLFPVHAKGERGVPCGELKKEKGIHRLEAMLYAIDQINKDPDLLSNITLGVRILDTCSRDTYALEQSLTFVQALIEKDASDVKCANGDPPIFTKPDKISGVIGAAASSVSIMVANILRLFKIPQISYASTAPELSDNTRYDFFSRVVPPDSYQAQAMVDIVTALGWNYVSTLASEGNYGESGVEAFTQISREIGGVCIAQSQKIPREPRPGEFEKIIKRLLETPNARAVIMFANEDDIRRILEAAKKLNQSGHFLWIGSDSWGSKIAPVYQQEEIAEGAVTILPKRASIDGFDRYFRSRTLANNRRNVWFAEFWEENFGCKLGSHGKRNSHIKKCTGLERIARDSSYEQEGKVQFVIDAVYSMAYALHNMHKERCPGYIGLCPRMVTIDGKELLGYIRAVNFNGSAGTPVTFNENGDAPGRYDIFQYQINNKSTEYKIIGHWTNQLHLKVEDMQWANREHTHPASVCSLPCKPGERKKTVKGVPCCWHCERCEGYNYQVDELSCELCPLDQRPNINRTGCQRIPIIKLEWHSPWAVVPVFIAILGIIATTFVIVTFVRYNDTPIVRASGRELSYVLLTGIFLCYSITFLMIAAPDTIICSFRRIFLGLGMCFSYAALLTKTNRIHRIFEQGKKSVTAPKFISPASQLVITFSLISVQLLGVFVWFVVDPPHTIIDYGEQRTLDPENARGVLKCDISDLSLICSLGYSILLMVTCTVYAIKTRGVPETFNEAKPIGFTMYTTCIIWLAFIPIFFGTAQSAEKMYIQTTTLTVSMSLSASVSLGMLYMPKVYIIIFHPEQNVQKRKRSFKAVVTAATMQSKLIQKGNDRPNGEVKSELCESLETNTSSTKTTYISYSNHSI

SMILES	z-score
c1ccc2[nH]c(NCCN3CCOCC3)nc2c1	-0.105
O=C(CSCC(=O)Nc1cccc([N+](=O)[O-])c1)Nc1ccccc1	-0.231
O=C(COC(=O)/C=C/c1cnc2ccccc2n1)NCC(F)(F)F	0.343
Cc1cccc(NC(=O)C2CCCN2S(=O)(=O)c2cccc3cccnc23)c1 (configuration not stated)	0.22
O=C(NCC1CCCO1)C1CC(=O)N(C2CCCCCC2)C1 (configuration not stated)	0.13
Cn1nnnc1SCc1ccc([N+](=O)[O-])cc1	0.306
CCCC(=O)Nc1ccccc1NC(=O)CN(C)S(=O)(=O)c1ccccc1	0.0247
Cc1cccc(Nc2nnc(C)c(=O)n2N)c1	-0.46
O=C(Nc1cnn(Cc2ccccc2)c1)NC12CC3CC(CC(C3)C1)C2	0.093
O=C(Nc1ccc2oc(-c3ccncc3)nc2c1)c1ccccc1F	-0.225
CCC(=O)Nc1nnc(-c2ccccn2)o1	-0.0239
CCN1C(=O)c2cccc3c(NC(=O)C4CCCCC4)ccc1c23	-0.192
COc1cccc(NC(=O)CSc2nnc(COc3ccc4c(c3)CCCC4)o2)c1	0.223
O=C(CCc1ccccc1)OCCN1CCOCC1	1.87
O=C(C1CCN(c2ccc(N3CCOCC3)nn2)CC1)N1CCc2ccccc2C1	-0.535
Cc1ccc(NC(=O)C(OC(=O)c2cc(C)oc2C)c2ccccc2)cc1 (configuration not stated)	-0.0577
CC(C)(C)OC(=O)N1CCC(C(=O)N[C@@H](Cc2ccccc2)C(=O)O)CC1	-0.103
COc1ccccc1NC(=S)N(CCCN1CCOCC1)Cc1ccccn1	-0.414
COc1cc(CNCc2cccs2)cc(Br)c1OC	-0.147

SMILES	z-score
CCc1nc(OCCN(CC)CC)c2oc3ccccc3c2n1	-0.286
COC(=O)c1c(N2C(=O)CCC2=O)sc2c1CCCC2	0.268
CC(=O)Cn1c(CN2CC(C)CC(C)C2)nc2c1c(=O)n(C)c(=O)n2C (configuration not stated)	0.0595
CCOc1cc(S(=O)(=O)N2CCCCCC2)ccc1F	-0.144
CN(C)CCCNC(=S)NCc1ccc(Cl)cc1	-0.54
O=C(CSc1ncn(-c2ccccc2)n1)Nc1nc2c(s1)CCCC2	-0.646
FC(F)(F)c1cc(-c2ccccc2)nc2ncnn12	0.271
O=C(O)c1ccc(Cl)cc1NC(=O)C1CCCO1 (configuration not stated)	-0.559
CCCNC(=O)COC(=O)CCC(=O)c1cccs1	-0.27
Cn1c(=N)n(CC(=O)O)c2ccccc21	0.982
Cc1cccc(Nc2ccccc2C(=O)OCC(=O)N(C)C2CCS(=O)(=O)C2)c1C (configuration not stated)	0.039
Cc1cccc(Oc2ncnc3oc(-c4ccccc4)cc23)c1C	-0.0842
OCCNc1nc(N2CCCC2)nc(N2CCCC2)n1	-0.968
O=C(c1cc(-c2ccc(Cl)c(Cl)c2)on1)N1CCN(c2ccccc2)CC1	-0.562
Cc1ccc(Cl)c(OCC(=O)OCC(=O)NC2CCCc3ccccc32)c1 (configuration not stated)	-0.47
O=[N+]([O-])c1cccc(Cl)c1NCCNc1ncc(C(F)(F)F)cc1Cl	-0.0828
CCOc1ccc(-c2c(C#N)c(N)nc3c2c(=O)n(C)c(=O)n3C)cc1OC	-0.0702
COc1ccc2nc(NC(=O)CCN3C(=S)NC(C)(C)CC3C)sc2c1 (configuration not stated)	-0.122
Cc1nn(Cc2ccc([N+](=O)[O-])cc2)c(=O)n1-c1cccc(F)c1	-0.186

SMILES	z-score
CCOC(=O)c1sc(=S)n(-c2ccc(Cl)cc2)c1C	-0.721
COc1ccc(CCNC(=O)c2cc(-c3ccc4c(c3)OCO4)on2)cc1OC	-0.214
CCS(=O)(=O)N1CCCC(C(=O)NC2CCC(C)CC2)C1 (configuration not stated)	-0.361
CCN(CC)CCNC(=O)c1ccccn1	-0.334
CCOC(=O)c1c(C)oc2c1c(CN1CCN(C(=O)OCC)CC1)c(O)c1ccccc12	0.242
COc1cc(C2C3C(=O)N(Cc4ccccc4)C(=O)C3ON2c2ccccc2)cc(OC)c1O (configuration not stated)	0.819
COc1ccc2c(c1)SCC(=O)N2C	-0.287
Cc1ccc(CCNc2ccccc2C)cn1	-0.339
Cc1[nH]c2ccccc2c1Cc1n[nH]c(=S)n1C	-0.246
Cc1ccc(-c2nc(C)sc2CC(=O)O)cc1	-0.887
CCOC(=O)CN1CC23C=CC(O2)C(C(=O)Nc2ccc(OC)cc2OC)C3C1=O (configuration not stated)	0.0644
CC(=O)N1CCN(c2ccc(NC(=O)c3ccc4c(c3)OCO4)cc2)CC1	-0.315
COc1cc(NC(=O)c2ccco2)c(OC)cc1NC(=O)CSc1ncc(-c2ccc(F)cc2)[nH]1	-0.182
COc1cccc(-c2ccc(=O)n(CC(=O)Nc3ccc(C(=O)N4CCCC4)cc3)n2)c1	0.0557
O=C(c1cc(-c2ccccc2)nc2ccccc12)N1CCN(c2ccccn2)CC1	-0.599
CC1(C)Cc2c(C#N)c(N3CCN(C(=O)c4ccco4)CC3)nc(-c3ccco3)c2CS1	0.157
N#C/C(=C\c1ccc(Sc2nc3ccccc3[nH]2)o1)c1ccccc1	-0.593
CC(C)Oc1ccc(CNC(=S)N/N=C/c2cccnc2)cc1	-0.416
COC(=O)c1cccc(-n2c(C)cc(C=O)c2C)c1C	-0.132
